B1: His6-Hs.NME1^P96S (enzyme)
chain: not shown
notes: NME1 (NM23, nucleoside diphosphate kinase), human (Hs.), P96S mutant, His tagged construct His6-Hs.NME1^P96S; Same construct as m1 with P96S (the killer of prune mutation); also called NME^P96S
B2: His6-Hs.NME1^H118F (enzyme)
chain: not shown
notes: NME1 (NM23, nucleoside diphosphate kinase), human (Hs.), H118F mutant, His tagged construct His6-Hs.NME1^H118F; Same construct as m1 with H118F (the autophosphorylation site)

Biological target: the molecule itself
Assay: native gel or EMSA; Blue native PAGE (NativePAGE Novex 4-16% Bis-Tris); 8 ug recombinant protein mixed with or without ATP (1 uM), 30 min at room temperature; run at near neutral pH (7.5), 4°C

Protein	stoichiometry N
B1	6
B2	6

Reference: article PMC5828198, “The relationship of NM23 (NME) metastasis suppressor histidine phosphorylation to its nucleoside diphosphate kinase, histidine protein kinase and motility suppression activities” (Oncotarget, 2017)
